Article PMC4752240
These are yes or no findings as the source states them, for the method shown. Some entries that bind do so weakly or less than the wild type. Tags and fused reporters may be left off the sequences shown.

Experiments:
Assay in all cases: two-hybrid; bait fused with the GAL4 DNA binding domain (pDEST32), prey fused with the GAL4 activation domain (pDEST22); mating of yeast strains AH109 and Y187; growth on -His (weak interaction) or -His -Ade (strong interaction); three replicates
[1] = target: T1, CCS52A1, yeast two-hybrid fusion (UniProt Q8L3Z8)
T1 sequence: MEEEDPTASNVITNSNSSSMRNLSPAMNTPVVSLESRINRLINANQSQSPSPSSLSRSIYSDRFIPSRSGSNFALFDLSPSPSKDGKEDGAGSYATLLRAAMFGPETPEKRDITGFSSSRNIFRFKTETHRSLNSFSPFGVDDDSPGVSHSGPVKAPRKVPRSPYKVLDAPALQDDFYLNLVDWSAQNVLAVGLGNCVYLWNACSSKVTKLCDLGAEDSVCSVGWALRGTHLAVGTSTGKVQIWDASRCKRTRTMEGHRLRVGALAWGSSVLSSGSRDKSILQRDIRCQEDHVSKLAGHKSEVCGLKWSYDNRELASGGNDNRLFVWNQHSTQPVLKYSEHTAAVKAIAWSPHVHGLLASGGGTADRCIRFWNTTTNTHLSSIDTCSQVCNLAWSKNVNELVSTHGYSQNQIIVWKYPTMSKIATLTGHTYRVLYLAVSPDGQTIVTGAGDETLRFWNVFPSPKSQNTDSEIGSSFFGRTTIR

[2] = target: T2, CCS52B, yeast two-hybrid fusion (UniProt Q8LPL5)
T2 sequence: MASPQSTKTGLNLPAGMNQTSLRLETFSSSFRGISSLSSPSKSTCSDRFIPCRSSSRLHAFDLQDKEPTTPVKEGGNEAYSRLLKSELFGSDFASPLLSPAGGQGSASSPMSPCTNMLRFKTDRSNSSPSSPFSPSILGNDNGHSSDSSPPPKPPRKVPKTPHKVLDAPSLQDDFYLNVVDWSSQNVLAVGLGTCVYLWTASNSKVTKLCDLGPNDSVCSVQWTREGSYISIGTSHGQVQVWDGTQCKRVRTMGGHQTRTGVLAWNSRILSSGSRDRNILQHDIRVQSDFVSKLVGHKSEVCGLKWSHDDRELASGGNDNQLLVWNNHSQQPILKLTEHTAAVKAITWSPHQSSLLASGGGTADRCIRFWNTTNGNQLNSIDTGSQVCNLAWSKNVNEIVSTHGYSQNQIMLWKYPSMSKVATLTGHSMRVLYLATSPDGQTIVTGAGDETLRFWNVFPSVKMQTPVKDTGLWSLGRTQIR

[3] = target: T3, CDC20.1, yeast two-hybrid fusion (UniProt Q9SZA4)
T3 sequence: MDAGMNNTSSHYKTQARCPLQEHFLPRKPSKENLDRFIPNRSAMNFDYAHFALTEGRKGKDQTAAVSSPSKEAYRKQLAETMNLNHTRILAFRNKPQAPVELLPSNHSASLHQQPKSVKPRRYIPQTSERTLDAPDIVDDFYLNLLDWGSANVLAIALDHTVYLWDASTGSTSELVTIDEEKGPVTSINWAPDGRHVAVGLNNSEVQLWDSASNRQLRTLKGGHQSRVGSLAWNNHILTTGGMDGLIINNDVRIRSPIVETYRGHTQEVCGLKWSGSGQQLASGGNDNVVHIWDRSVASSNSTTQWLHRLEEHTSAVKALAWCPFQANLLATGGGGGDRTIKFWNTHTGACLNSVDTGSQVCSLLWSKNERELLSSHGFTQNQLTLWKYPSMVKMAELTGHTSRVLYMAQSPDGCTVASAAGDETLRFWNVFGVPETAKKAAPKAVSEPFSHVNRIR

[4] = target: T4, PANS1, yeast two-hybrid fusion (UniProt Q9LJG6)
T4 sequence: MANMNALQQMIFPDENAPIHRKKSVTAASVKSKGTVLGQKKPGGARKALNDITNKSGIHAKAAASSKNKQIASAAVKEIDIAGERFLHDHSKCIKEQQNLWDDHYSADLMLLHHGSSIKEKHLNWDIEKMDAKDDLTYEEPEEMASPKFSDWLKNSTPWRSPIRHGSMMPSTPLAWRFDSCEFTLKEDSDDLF

[5] = target: T5, TDM1 (THREE DIVISION MUTANT1), yeast two-hybrid fusion (Arabidopsis thaliana) (UniProt Q9SUC3)
T5 sequence: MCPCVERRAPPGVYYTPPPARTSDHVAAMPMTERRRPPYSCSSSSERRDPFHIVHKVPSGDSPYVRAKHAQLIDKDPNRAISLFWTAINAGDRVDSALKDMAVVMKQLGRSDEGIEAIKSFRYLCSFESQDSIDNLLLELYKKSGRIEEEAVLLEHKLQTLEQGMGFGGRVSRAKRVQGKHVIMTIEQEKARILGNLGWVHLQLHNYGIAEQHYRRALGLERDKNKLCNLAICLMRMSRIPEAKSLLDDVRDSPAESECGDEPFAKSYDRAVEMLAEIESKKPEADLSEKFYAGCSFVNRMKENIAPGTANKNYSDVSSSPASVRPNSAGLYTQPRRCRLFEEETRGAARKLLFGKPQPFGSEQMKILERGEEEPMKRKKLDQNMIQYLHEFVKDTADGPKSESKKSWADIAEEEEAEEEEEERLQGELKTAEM

B1: TDM1 (THREE DIVISION MUTANT1), yeast two-hybrid fusion (protein, UniProt Q9SUC3 1-434)
chain: MCPCVERRAPPGVYYTPPPARTSDHVAAMPMTERRRPPYSCSSSSERRDPFHIVHKVPSGDSPYVRAKHAQLIDKDPNRAISLFWTAINAGDRVDSALKDMAVVMKQLGRSDEGIEAIKSFRYLCSFESQDSIDNLLLELYKKSGRIEEEAVLLEHKLQTLEQGMGFGGRVSRAKRVQGKHVIMTIEQEKARILGNLGWVHLQLHNYGIAEQHYRRALGLERDKNKLCNLAICLMRMSRIPEAKSLLDDVRDSPAESECGDEPFAKSYDRAVEMLAEIESKKPEADLSEKFYAGCSFVNRMKENIAPGTANKNYSDVSSSPASVRPNSAGLYTQPRRCRLFEEETRGAARKLLFGKPQPFGSEQMKILERGEEEPMKRKKLDQNMIQYLHEFVKDTADGPKSESKKSWADIAEEEEAEEEEEERLQGELKTAEM
[1]
  binding: no binding
[2]
  binding: no binding
[3]
  binding: binds
[4]
  binding: no binding
[5]
  binding: binds
